Assay results: PubChem BioAssay AID463173 (ICCB-Longwood Screening Facility, Harvard Medical School, 2010)
Out of some 52,000 compounds screened, about 4,300 (8.3%) were called active. Cut-off read from the data, not from the text of the source: active = survival mostly below about 52% (no sharp cut-off); inactive = mostly above about 56%. This is one part of the list.

test system: DeltatarO mutant; experiment: growth inhibition of S. aureus wild type versus tarO mutant, primary screen, teichoic acid synthesis inhibitors, RN4220, OD600 (AID 463173); conditions: OD600, 18 h, stronger effect = lower value, screened at 18.75 µg/mL (by protocol)

Row | Structure (SMILES) | survival
1 | CCOC(=O)C1CCN(C(c2ccccc2)c2c(O)cc(C)n(Cc3ccco3)c2=O)CC1 (stereo unspecified) | inactive: 67%
2 | COc1ccc(OCC(=O)Nc2nnc(S(=O)(=O)N3CCCCCC3)s2)cc1 | inactive: 76%
3 | CCOc1ccc(NC(=O)Cn2c(Nc3ccc(OCC)cc3)nc3c2c(=O)[nH]c(=O)n3C)cc1 | inactive: 78%
4 | COc1ccc(NC(=O)c2ccccc2NC(=O)c2ccco2)cc1 | inactive: 74%
5 | O=C(c1ccco1)N(Cc1cccnc1)c1nc2ccc(F)cc2s1 | inactive: 115%
6 | CCc1ccc(C2C(C(=O)Nc3ccccc3)=C(C)Nc3c(C(=O)Nc4ccc(C)cc4)cnn32)cc1 (stereo unspecified) | active: 17%
7 | COc1cc(OC)cc(-c2nc3n(n2)C(c2ccccc2F)C(C(=O)Nc2cccnc2)=C(C)N3)c1 (stereo unspecified) | active: 45%
8 | Cc1ccc(S(=O)(=O)NCC(c2ccc(N(C)C)cc2)N2CCCC2)cc1 (stereo unspecified) | inactive: 98%
9 | CCc1ccc(S(=O)(=O)c2cn(C)c3cc(N4CCCCC4C)c(F)cc3c2=O)cc1 (stereo unspecified) | inactive: 99%
10 | Cc1cc(C)cc(NC(=O)C2CCCN(c3nnc(C)c4c(C)n(-c5ccccc5)nc34)C2)c1 (stereo unspecified) | inactive: 96%
11 | CCOC(=O)Cn1c(=O)oc2cc(S(=O)(=O)N3CCN(c4ccc(Cl)cc4)CC3)ccc21 | inactive: 59%
12 | CCC(C)NC(=O)c1cc2c(Cl)nc3ccc(C)cc3c2s1 (stereo unspecified) | inactive: 65%
13 | CC(C)CNC(=O)c1cccc(Cl)c1 | inactive: 82%
14 | Cc1ccc2c(c1)cc(C(=O)Nc1ccccc1C)n2C | inactive: 78%
15 | CC1CCN(CC(=O)O)CC1 | inactive: 99%
16 | O=C(c1ccc(Cl)cc1)N1CCCC(c2nc(-c3ccc(Cl)cc3)no2)C1 (stereo unspecified) | inactive: 87%
17 | COc1cc(C2CC(=O)Nc3c2c(=O)[nH]c2nc4ccccc4n32)ccc1O (stereo unspecified) | inactive: 161%
18 | COc1ccc(CCNCc2c(C(=O)O)c(C)n(Cc3ccccc3C)c2C)c(OC)c1 | inactive: 93%
19 | CCOc1ccccc1N(C)C(=O)Cn1cnc2sc(C)c(S(=O)(=O)N3CCC(C)CC3)c2c1=O | inactive: 65%

Row | Structure (SMILES) | survival
20 | Cc1ccc(Cn2nnc3c(=O)[nH]c(C4CCN(S(=O)(=O)/C=C/c5ccccc5)CC4)nc32)cc1 | inactive: 89%
21 | COc1cc(OC)c(NC(=O)COCc2cc(-c3cccs3)on2)cc1Cl | inactive: 71%
22 | COc1ccccc1N1CCN(C(=O)Cn2ncc3c(=O)oc4ccccc4c32)CC1 | inactive: 85%
23 | Cc1cccc(N2CCN(S(=O)(=O)c3ccc4c(c3)CCCN4C(=O)C3CCC3)CC2)c1C | inactive: 68%
24 | O=C(Nc1ccc(C(=O)OCc2cc(=O)n3nc(C4CC4)sc3n2)cc1)c1ccc(F)cc1 | inactive: 84%
25 | Cc1nc(N2CCCC2)c2c(C(=O)Nc3cccc(C)c3C)c(C)oc2n1 | inactive: 92%
26 | CC(=O)Nc1cccc(NC(=O)Cn2cnc3c2c(=O)n(C)c(=O)n3C)c1 | inactive: 70%
27 | O=C(Nc1cccc(Cl)c1)c1c(NC(=O)C(F)(F)F)sc2c1CCCC2 | active: -2%
28 | CCN(CC)c1ccc(NC(=O)C(Cc2ccccc2)NS(=O)(=O)c2ccc(Br)s2)c(C)c1 (stereo unspecified) | inactive: 117%
29 | COc1cccc(NC(=O)Nc2cc(-c3cn4cccnc4n3)ccc2C)c1 | inactive: 85%
30 | CCC(Sc1nnc(C)n2c1cc1occc12)C(=O)Nc1ccccc1F (stereo unspecified) | inactive: 96%
31 | O=C(NCCO)C(=O)Nc1c2c(nn1-c1ccc(F)cc1)CSC2 | inactive: 82%
32 | CN(C)S(=O)(=O)Nc1ccc(Cc2ccncc2)cc1 | inactive: 100%
33 | N#Cc1cn(CCOc2ccccc2F)c2ccccc12 | inactive: 82%
34 | COc1ccccc1CCNC(=O)CCc1c(C)c2cc3c(C)coc3c(C)c2oc1=O | inactive: 75%
35 | CN(C)CCN(Cc1ccco1)S(=O)(=O)c1cc2c(cc1Cl)NC(=O)CO2 | inactive: 57%
36 | O=C(Cn1c(=O)n(Cc2ccco2)c(=O)c2oc3ccccc3c21)Nc1ccc(F)cc1F | inactive: 75%
37 | COc1ccccc1-c1noc(-c2ccc(N3CCN(c4ccccc4)CC3)c([N+](=O)[O-])c2)n1 | active: 44%
38 | COc1ccc(N2CCN(c3cc(C)nc4nc(-c5ccc(C)cc5)nn34)CC2)cc1 | inactive: 53%

Row | Structure (SMILES) | survival
39 | CC1=C(C#N)C(NC(=O)c2cccc(Cl)c2)(C(F)(F)F)C(=O)N1 (stereo unspecified) | inactive: 65%
40 | Cc1ccc(S(=O)(=O)NCC2COc3ccccc3O2)cc1 (stereo unspecified) | inactive: 85%
41 | Cc1ccc(Cl)cc1NC(=O)N1CCN(C)c2ncccc21 | inactive: 88%
42 | Cc1cccc(C(=O)N2CCc3cc(CNC(=O)CCc4ccccc4)ccc32)c1 | inactive: 60%
43 | CC(C)Oc1ccc(CNC(=O)C2CCN(C(=O)c3sccc3-n3cccc3)CC2)cc1 | inactive: 62%
44 | Cc1ccc(-c2noc(CNC(=O)c3ccc(C(C)(C)C)cc3)n2)cc1 | inactive: 79%
45 | COC(=O)c1cc2oc3ccccc3c2n1CC(=O)Nc1ccc(OC)c(OC)c1OC | inactive: 69%
46 | COc1ccccc1CNC(=O)CN1C(=O)CSc2ccc(S(=O)(=O)N3CCCC3)cc21 | inactive: 94%
47 | Cc1ccc2[nH]c(=O)c(CN(Cc3ccccc3)C(=O)N(C)C)cc2c1 | inactive: 91%
48 | CC(C)OCCCN(Cc1ccco1)C(=O)c1cc2c(s1)-c1ccccc1OC2 | active: -5%
49 | COCc1cc(C)n(CC(=O)Nc2ccc(NC(C)=O)cc2)c(=O)c1C#N | inactive: 87%
50 | CCN(CC)C(=O)Cn1cc(SCC(=O)Nc2cccc(C)c2)c2ccccc21 | inactive: 69%
51 | Cc1ccc(NCc2cccn2-c2nnc(N3CCC(C(=O)NCc4ccc(OC(C)C)cc4)CC3)s2)cc1 | inactive: 69%
52 | CCC1(C(=O)OC)NC(c2ccc(OC)cc2)C2C(=O)N(C)C(=O)C21 (stereo unspecified) | inactive: 94%
53 | CNS(=O)(=O)c1ccc(OC)c(-c2nnc3c4ccccc4c(C)nn23)c1 | inactive: 86%
54 | O=C(CSc1ncc2c(n1)-c1ccccc1N(Cc1ccc(F)cc1)S2(=O)=O)c1ccc(Cl)cc1 | inactive: 89%
55 | CCc1cc2c(cc3c(=O)n(CC(=O)N4CCN(c5cc(Cl)ccc5C)CC4)ncn32)s1 | inactive: 58%
56 | CCOCCOC(=O)c1ccc(NC(=O)/C=C/c2ccc(OC)c(OC)c2)cc1 | inactive: 137%
